Paper PMC11995724, “Antibiotic target discovery by integrated phenotypic and activity-based profiling of electrophilic fragments” (Cell chemical biology, 2025)
The campaign covered roughly 3,200 compounds. About 110 (3.4%) showed an effect of 50% or more. Some of the results follow.

The molecules below were run on T1, V. cholerae SAD30. Conditions: relative growth, OD600, LB; 25 µM; inhibitor.
T1 construct: SAD30
Design: species or system S. aureus MSSA476 (TSB) or V. cholerae SAD30 (LB); 384-well bacterial growth screen at 25 uM, OD600 relative to DMSO control

SMILES	% of control remaining [%]
C=CC(=O)Nc1cc(NC(=O)c2ccc([N+](=O)[O-])o2)ccc1F [3-J04, N-[4-fluoro-3-(prop-2-enamido)phenyl]-5-nitrofuran-2-carboxamide]	-0.1875
N#CC(=Cc1cccc2nccn12)C(=O)Nc1ccccc1 [9-M05, 2-cyano-3-{imidazo[1,2-a]pyridin-5-yl}-N-phenylprop-2-enamide]	91.9782
C=CC(=O)Nc1ccc2c(c1)CCO2 [1-O11, N-(2,3-dihydro-1-benzofuran-5-yl)prop-2-enamide]	88.4903
CCc1ccccc1NC(=O)CN(C)C(=O)C(C)Cl (stereo not shown) [4-P05, 2-chloro-N-{[(2-ethylphenyl)carbamoyl]methyl}-N-methylpropanamide]	120.078
C=CC(=O)Nc1ccc(OC)c(COC)c1 [3-B06, N-[4-methoxy-3-(methoxymethyl)phenyl]prop-2-enamide]	110.439
Cc1cc(C(=O)CCl)c(C)n1-c1ccc(OC(F)F)c(Cl)c1 [10-K04, 2-chloro-1-{1-[3-chloro-4-(difluoromethoxy)phenyl]-2,5-dimethyl-1H-pyrrol-3-yl}ethan-1-one]	96.6297
CC(Cl)C(=O)Nc1ccc(SC(F)F)cc1 (stereo not shown) [4-L09, 2-chloro-N-{4-[(difluoromethyl)sulfanyl]phenyl}propanamide]	88.1604
N#CC(=Cc1ccc(F)c([N+](=O)[O-])c1)C(=O)Nc1ccc(F)cc1 [8-D04, 2-cyano-3-(4-fluoro-3-nitrophenyl)-N-(4-fluorophenyl)prop-2-enamide]	87.0836
C=CC(=O)NCc1ccnc(OC2CCOCC2)c1 [2-B17, N-{[2-(oxan-4-yloxy)pyridin-4-yl]methyl}prop-2-enamide]	92.203
N#CC(=Cc1c(F)cccc1Cl)C(=O)Nc1ccc(C(=O)O)cc1 [9-P06, 4-[3-(2-chloro-6-fluorophenyl)-2-cyanoprop-2-enamido]benzoic acid]	99.3202
COc1ccc(OC)c(C(C)NC(=O)CCl)c1 (stereo not shown) [4-M19, 2-chloro-N-[1-(2,5-dimethoxyphenyl)ethyl]acetamide]	102.48
CC(Cl)C(=O)NC(=O)NC1CCS(=O)(=O)C1 (stereo not shown) [4-J13, 3-(2-chloropropanoyl)-1-(1,1-dioxo-1lambda6-thiolan-3-yl)urea]	97.4768
C=CC(=O)Nc1ccc2c(=O)onc(C)c2c1 [1-N12, N-(4-methyl-1-oxo-1H-2,3-benzoxazin-6-yl)prop-2-enamide]	81.4524
Cc1c(Cl)cccc1NC(=O)CNC(=O)CCl [5-N20, 2-chloro-N-{[(3-chloro-2-methylphenyl)carbamoyl]methyl}acetamide]	102.049
C=CC(=O)NC(C1CCC1)C1CCOC1 (stereo not shown) [1-O22, N-[cyclobutyl(oxolan-3-yl)methyl]prop-2-enamide]	98.0568
C=CC(=O)N1CCC(C(=O)NCc2cn3ccc(C)nc3n2)CC1 [3-D12, N-({7-methylimidazo[1,2-a]pyrimidin-2-yl}methyl)-1-(prop-2-enoyl)piperidine-4-carboxamide]	99.3237
CCOc1ccc(C=C(C#N)C(=O)N2CCc3sccc3C2)cc1 [8-G22, 3-(4-ethoxyphenyl)-2-{4H,5H,6H,7H-thieno[3,2-c]pyridine-5-carbonyl}prop-2-enenitrile]	82.3249
Cn1cc(C=C(C#N)C(=O)NCc2ccccc2)cn1 [8-J10, N-benzyl-2-cyano-3-(1-methyl-1H-pyrazol-4-yl)prop-2-enamide]	68.8647
C=CC(=O)NCc1oc(CC)nc1C [3-P15, N-[(2-ethyl-4-methyl-1,3-oxazol-5-yl)methyl]prop-2-enamide]	104.44
COc1ccc(C(NC(=O)CCl)c2ccccc2)cc1 (stereo not shown) [4-J11, 2-chloro-N-[(4-methoxyphenyl)(phenyl)methyl]acetamide]	108.001
CC(Cl)C(=O)Nc1ccc(Cl)cc1C(F)(F)F (stereo not shown) [4-A14, 2-chloro-N-[4-chloro-2-(trifluoromethyl)phenyl]propanamide]	102.825
C=CC(=O)N1CCC(C(=O)N2CCOC(c3cccc(F)c3)C2)CC1 (stereo not shown) [2-L14, 1-{4-[2-(3-fluorophenyl)morpholine-4-carbonyl]piperidin-1-yl}prop-2-en-1-one]	86.1816
C=CC(=O)Nc1ccc(S(C)(=O)=O)cc1OCC [2-C08, N-(2-ethoxy-4-methanesulfonylphenyl)prop-2-enamide]	93.747

SMILES	% of control remaining [%]
CC(Cl)C(=O)N(C)CCn1c(=O)oc2ccccc21 (stereo not shown) [7-H15, 2-chloro-N-methyl-N-[2-(2-oxo-2,3-dihydro-1,3-benzoxazol-3-yl)ethyl]propanamide]	82.4715
C[C@@H](NC(=O)CCl)c1cnnn1C [7-F16, 2-chloro-N-[(1R)-1-(1-methyl-1H-1,2,3-triazol-5-yl)ethyl]acetamide]	76.524
C=CC(=O)N(Cc1cc(-c2ccco2)n(C)n1)C1CCCCC1 [1-J15, N-cyclohexyl-N-{[5-(furan-2-yl)-1-methyl-1H-pyrazol-3-yl]methyl}prop-2-enamide]	68.7593
CC(Cl)C(=O)N1CCC(Oc2cnc3ccccc3n2)CC1 (stereo not shown) [7-I18, 2-chloro-1-[4-(quinoxalin-2-yloxy)piperidin-1-yl]propan-1-one]	72.1626
O=C1C=CC(=O)N1c1cccc([N+](=O)[O-])c1 [10-P15, 1-(3-nitrophenyl)-2,5-dihydro-1H-pyrrole-2,5-dione]	35.6906
N#CC(=Cc1ccsc1)C(=O)Nc1ccc(Cl)cc1 [9-I06, N-(4-chlorophenyl)-2-cyano-3-(thiophen-3-yl)prop-2-enamide]	82.8688
O=C(CCl)c1ccc(NC(=O)c2ccccc2)cc1 [10-B06, N-[4-(2-chloroacetyl)phenyl]benzamide]	21.5079
C=CC(=O)NC[C@@H]1C[C@H](F)CN1Cc1csc(C)n1 [2-I09, N-{[(2S,4S)-4-fluoro-1-[(2-methyl-1,3-thiazol-4-yl)methyl]pyrrolidin-2-yl]methyl}prop-2-enamide]	90.6591
C=CC(=O)NC1CCc2nc(CC)nn2C1 (stereo not shown) [1-G22, N-{2-ethyl-5H,6H,7H,8H-[1,2,4]triazolo[1,5-a]pyridin-6-yl}prop-2-enamide]	105.979
O=C(CCl)Nc1c(Cl)cc(Cl)cc1Cl [5-B16, 2-chloro-N-(2,4,6-trichlorophenyl)acetamide]	98.3503
C=CC(=O)NCc1nc2ccccc2n1C1CC1 [2-N03, N-[(1-cyclopropyl-1H-1,3-benzodiazol-2-yl)methyl]prop-2-enamide]	105.172
C=CC(=O)N(Cc1c(F)cc(C)cc1Cl)C1CCCOCC1 (stereo not shown) [2-A13, N-[(2-chloro-6-fluoro-4-methylphenyl)methyl]-N-(oxepan-4-yl)prop-2-enamide]	81.8585
CC1CN(C(=O)c2ccc(NC(=O)C(C)Cl)cc2)CC(C)O1 (stereo not shown) [7-E22, 2-chloro-N-[4-(2,6-dimethylmorpholine-4-carbonyl)phenyl]propanamide]	87.4938
CC(c1cccc(NC(=O)c2ccccc2)c1)N(C)C(=O)CCl (stereo not shown) [6-M22, N-{3-[1-(2-chloro-N-methylacetamido)ethyl]phenyl}benzamide]	100.559
O=C(CCl)N(Cc1ccccc1)Cc1ccc(F)cc1 [5-I06, N-benzyl-2-chloro-N-[(4-fluorophenyl)methyl]acetamide]	81.2021
C=CC(=O)NCc1nnc(C(F)(F)F)s1 [1-O14, N-{[5-(trifluoromethyl)-1,3,4-thiadiazol-2-yl]methyl}prop-2-enamide]	90.7324
COc1ccc(C(=O)C(C)Cl)c(OC)c1 (stereo not shown) [10-J17, 2-chloro-1-(2,4-dimethoxyphenyl)propan-1-one]	98.0323
CC(Cl)C(=O)NCCS(=O)(=O)c1cccs1 (stereo not shown) [6-N15, 2-chloro-N-[2-(thiophene-2-sulfonyl)ethyl]propanamide]	94.0373
COc1ccc(C=C(C#N)C(=O)Nc2ccc3c(c2)OCCO3)cc1O [8-H19, 2-cyano-N-(2,3-dihydro-1,4-benzodioxin-6-yl)-3-(3-hydroxy-4-methoxyphenyl)prop-2-enamide]	77.1584
C=CC(=O)NCC1(C)CCC(C)(C)CC1 [1-F22, N-[(1,4,4-trimethylcyclohexyl)methyl]prop-2-enamide]	115.554
C=CC(=O)NCc1cnoc1C [3-C22, N-[(5-methyl-1,2-oxazol-4-yl)methyl]prop-2-enamide]	117.673
CC(Cl)C(=O)N(C)CCOc1ccc(Cl)cc1 (stereo not shown) [6-C12, 2-chloro-N-[2-(4-chlorophenoxy)ethyl]-N-methylpropanamide]	74.0165
O=C(CCl)NCc1coc(Cl)n1 [6-B04, 2-chloro-N-[(2-chloro-1,3-oxazol-4-yl)methyl]acetamide]	95.2507
